From the antibiotic and cytotoxicity screens of Wong et al. (2023)
The other results are listed elsewhere or left out.

System: S. aureus RN4220
Experiment: growth inhibition call (relative growth <= 0.2)
Conditions: 50 µM

Growth inhibition call, inactive:
C=CC(=O)NCCN1CCOCC1
CNC[C@H]1OCCCC[C@@H](C)Oc2ccc(NC(=O)Nc3cccc4ccccc34)cc2C(=O)N([C@@H](C)CO)C[C@@H]1C
C[C@H]1CCCCO[C@@H](CN(C)Cc2ccc(C(=O)O)cc2)[C@@H](C)CN([C@@H](C)CO)C(=O)c2cc(NS(=O)(=O)c3ccc(F)cc3)ccc2O1
C[C@@H]1CCCCO[C@H](CN(C)Cc2ccc3c(c2)OCO3)[C@H](C)CN([C@@H](C)CO)C(=O)c2cc(NC(=O)CCC(F)(F)F)ccc2O1
COc1ccccc1S(=O)(=O)N[C@@H]1C=C[C@@H](CC(=O)N2CCN(C)CC2)O[C@@H]1CO
C[C@H]1CCCCO[C@H](CN(C)S(=O)(=O)c2ccc(F)cc2)[C@@H](C)CN([C@@H](C)CO)C(=O)c2cc(NS(=O)(=O)c3ccc(Cl)cc3)ccc2O1
COc1ccc(NC(=O)Nc2cccc3c2O[C@@H](CN(C)S(=O)(=O)c2cn(C)cn2)[C@H](C)CN([C@H](C)CO)C3=O)cc1
CN(CC(=O)O)S(=O)(=O)c1ccc(F)cc1
CC(C)(C)[S@@](=O)N1Cc2cc(C(=O)NC3CCCCC3)nc(-c3cccc(Br)c3)c2[C@H]1CCO
COc1ccc(CN(C)C[C@@H]2OCCCC[C@H](C)Oc3ccc(NC(=O)c4ccncc4)cc3C(=O)N([C@H](C)CO)C[C@H]2C)cc1
CC[C@@H]1CN(C(=O)OC)N1
C[C@@H]1CN([C@H](C)CO)C(=O)Cc2cc(NC(=O)Nc3ccc(C(F)(F)F)cc3)ccc2O[C@@H]1CN(C)Cc1ccccc1
C[C@H](CO)N1C[C@H](C)[C@H](CN(C)Cc2ccc(Oc3ccccc3)cc2)OCc2ccccc2-c2c(n(C)c3ccccc23)C1=O
O=c1[nH]cc(COCc2ccccc2)c(=O)[nH]1
CCNC(=O)C[C@H]1CC[C@H](NC(=O)C2CC2)[C@@H](CO)O1
Cc1noc(C)c1NC(=O)Nc1ccc2c(c1)CC(=O)N([C@@H](C)CO)C[C@H](C)[C@@H](CN(C)Cc1ccc(Cl)c(Cl)c1)O2
COc1ccc(-c2cnc3c(c2)C(=O)N([C@H](C)CO)C[C@H](C)[C@H](CN(C)S(=O)(=O)c2cn(C)cn2)O3)cc1
C=CC(=O)Nc1cccc(C)c1Nc1ncc2cc(-c3c(Cl)c(OC)cc(OC)c3Cl)ccc2n1
Nc1nnnn1/N=C/c1ccco1
Cc1ccc(S(=O)(=O)N(C)C[C@H]2Oc3c(NS(=O)(=O)c4ccccc4)cccc3C(=O)N([C@@H](C)CO)C[C@H]2C)cc1
C[C@H](CO)N1C[C@H](C)[C@@H](CN(C)Cc2ccc(Cl)c(Cl)c2)OCCCC[C@H](C)Oc2ccc(NS(=O)(=O)c3ccccc3)cc2C1=O
O=C1O[C@@H](c2ccccc2)[C@@H](c2ccccc2)N2[C@@H](c3ccc(O)cc3)[C@]3(C(=O)Nc4ccc(C#CC5(O)CCCCCC5)cc43)[C@@H](C(=O)NC[C@H](O)c3ccccc3)[C@H]12
CN(C)CCCN1c2ccccc2CCc2ccc(Cl)cc21.Cl
COc1ccc(-c2ccc3c(c2)O[C@H](CN(C)CC2CCOCC2)[C@H](C)CN([C@H](C)CO)S3(=O)=O)cc1
O=C(C[C@@H]1CC[C@@H]2[C@H](COC[C@@H](O)CN2S(=O)(=O)c2ccccc2)O1)N[C@H]1CCN(Cc2ccccc2)C1
COc1ccccc1NC(=O)N(C)C[C@H]1Oc2ncc(C#CCN(C)C)cc2C(=O)N([C@H](C)CO)C[C@@H]1C
C[C@H](CO)N1C[C@H](C)[C@@H](CN(C)S(=O)(=O)c2ccc(Oc3ccccc3)nc2)OCc2cn(nn2)CCCC1=O
C[C@H]1CCCCO[C@@H](CN(C)Cc2ccncc2)[C@@H](C)CN([C@@H](C)CO)C(=O)c2cc(NC(=O)Nc3ccccc3)ccc2O1
O=C(C[C@H]1C[C@H]2c3cc(NS(=O)(=O)c4ccc(F)cc4)ccc3O[C@H]2[C@@H](CO)O1)NCc1ccncc1
C[C@@H]1CCCCO[C@@H](CN(C)Cc2ccccc2)[C@H](C)CN([C@H](C)CO)C(=O)c2cc(NS(=O)(=O)c3cccs3)ccc2O1
C[C@@H]1CN([C@@H](C)CO)C(=O)c2cccc(NC(=O)c3cnccn3)c2O[C@H]1CN(C)S(=O)(=O)c1cn(C)cn1
CC(=O)OC[C@H]1O[C@H](C/C=N/O[C@H](C)c2cn([C@@H]3COC[C@H]3O)nn2)C=C[C@@H]1OC(C)=O
Cc1noc(C)c1S(=O)(=O)N(C)C[C@@H]1Oc2ccc(NS(=O)(=O)c3cccs3)cc2C(=O)N([C@H](C)CO)C[C@@H]1C
C[C@@H]1CN([C@H](C)CO)C(=O)c2cccc(NS(=O)(=O)c3cn(C)cn3)c2O[C@H]1CN(C)Cc1ccncc1
COc1ccc(-c2cc(=O)c3c(OC)cc(OC)cc3o2)cc1
Cc1cc(C(=O)Nc2cccc3c2O[C@@H](CN(C)S(C)(=O)=O)[C@@H](C)CN([C@H](C)CO)C3=O)n(C)n1
C[C@@H]1CCCCO[C@H](CN(C)S(=O)(=O)c2cccs2)[C@H](C)CN([C@@H](C)CO)C(=O)c2cc(NS(=O)(=O)c3cn(C)cn3)ccc2O1
C=CCOC(=O)[C@@H]1[C@H]2C(=O)O[C@H](c3ccccc3)[C@H](c3ccccc3)N2[C@H](c2ccc(OCCOC(=O)[C@H]3C[C@H]4C(=O)N5CCC[C@H]5C(=O)N4[C@H]3c3cccc(OCCO)c3)cc2)[C@@]12C(=O)Nc1ccc(I)cc12
O=C(C[C@H]1C[C@@H]2c3cc(NC(=O)C4CCOCC4)ccc3O[C@@H]2[C@H](CO)O1)NCc1cc(F)ccc1F
O=c1[nH]ncc2ccccc12
